# Experimental data published in PubChem BioAssay AID463173 (ICCB-Longwood Screening Facility, Harvard Medical School, 2010).
# Hit rate of the full screen: of about 52,000 compounds, about 1,700 (3.3%) were called active. No stated cut-off is given here; in the data, active means survival mostly below about 52% (no sharp cut-off); inactive means mostly above about 56%. The list shows a part of the results.
# Tested on: Wild type
# Experiment: growth inhibition of S. aureus wild type versus tarO mutant, primary screen, teichoic acid synthesis inhibitors, RN4220, OD600 (AID 463173)
# Details: S. aureus RN4220 wild type/DeltatarO growth, OD600, 18 h, hits give low values, screened at 18.75 µg/mL (by protocol)
row,Compound,survival
1,COc1cccc(Cc2nc3ccccc3nc2SCC(=O)Nc2ccccc2F)c1,inactive: 93%
2,COc1cc2c(cc1OC)C(C)N(C(C)=O)CC2 (stereo not drawn),inactive: 98%
3,CN(C)c1ccc(CNC(=O)c2ccc(NC(=O)c3nsc4ccccc34)cc2)cc1,inactive: 71%
4,CCS(=O)(=O)N1CCNCC1,inactive: 104%
5,O=C(Cn1c(=O)n(-c2ccccc2)c(=O)c2c3c(sc21)CCCC3)Nc1cccc(F)c1,inactive: 85%
6,Cc1c(C(=O)NCc2ccccc2Cl)cccc1-n1cnc2cccnc21,inactive: 83%
7,Cc1cccc(CNC(=O)c2ccc3nc(-c4ccccc4)c(-c4ccccc4)nc3c2)c1,inactive: 84%
8,CCC12CN3CC(C)(CN(C1)C3c1c(C)n(C)c3ccccc13)C2=O (stereo not drawn),inactive: 89%
9,CC(C)C1N=C2c3ccccc3N=C(SCC(=O)NCc3ccc(F)cc3)N2C1=O (stereo not drawn),inactive: 72%
10,Cc1cccc(NC(=O)Cn2c(=O)n(CCc3ccccc3)c(=O)c3sc4ccccc4c32)c1,inactive: 133%
11,CCOC(=O)Cn1c(=O)n(C2CCCCC2)c2nc(-c3ccccc3Cl)nc(C(N)=O)c21,inactive: 66%
12,O=C(Nc1c[nH]c(=O)[nH]c1=O)c1cccc(C(=O)Nc2c[nH]c(=O)[nH]c2=O)c1,inactive: 105%
13,O=C1CC2C(=O)NCCN2C(=NC(=O)c2ccc(Cl)cc2)N1 (stereo not drawn),inactive: 100%
14,O=C(CSc1nc2c([nH]c3ccccc32)c(=O)n1-c1ccc(F)cc1)N1CCCc2ccccc21,inactive: 73%
15,COc1cc(NC(=O)c2cc(C3CC3)nc3c2c(C)nn3-c2ccc(C)cc2)cc(OC)c1,inactive: 79%
16,Nc1c(-c2nc(-c3ccc(Cl)cc3)no2)nnn1-c1ccc(C(F)(F)F)c(Cl)c1,inactive: 88%
17,Cc1cccc(C)c1OCc1nc2c3cnn(-c4ccccc4Br)c3ncn2n1,inactive: 92%
18,O=C(NC1CCCCC1)c1cc(Nc2ccccc2)nc2ccccc12,inactive: 75%
19,COC(=O)c1ccc(NC(=O)CCNS(=O)(=O)c2cccc3nsnc23)cc1,inactive: 62%
20,CCOC(=O)CC(NC(=O)c1cc2c(=O)n3cccc(C)c3nc2s1)c1ccc(OCC(C)C)c(OC)c1 (stereo not drawn),inactive: 77%

row,Compound,survival
1,COc1ccc(CCN2C(=O)c3[nH]nc(-c4ccccc4O)c3C2c2ccc(O)c(OC)c2)cc1 (stereo not drawn),inactive: 54%
2,COc1ccc(-c2c(C)nn3c(-c4ccccc4)cc(-c4ccccc4)nc23)cc1OC,inactive: 102%
3,CCC(CC)C(=O)Nc1nnc2n1CCS2,inactive: 132%
4,CCOC(=O)c1cc2occc2n1CC(=O)N1CCCc2ccccc21,inactive: 99%
5,COCC(C)NC(=O)c1ccc2c(c1)OCO2 (stereo not drawn),inactive: 106%
6,Cc1ccc(C(=O)N2CCC(c3c[nH]c4ccccc34)(c3c[nH]c4ccccc34)CC2)cc1,inactive: 60%
7,Cn1nccc1C(=O)NCc1ccc2c(c1)CCN2C(=O)c1ccc(F)cc1,inactive: 65%
8,COc1cc(Cl)ccc1Nc1ncc(C(=O)N2CCN(c3ccccc3OC)CC2)c2ccccc12,inactive: 77%
9,COc1ccc(OC)c(-c2cc(C(=O)Nc3cccc(Cl)c3C)no2)c1,inactive: 26%
10,COc1ccccc1Nc1cc(C(=O)NCCCN(C)c2ccccc2)c2ccccc2n1,inactive: 89%
11,COc1cccc(CNC(=O)c2ccc(Cn3c(SCc4ccccc4)nc4cccnc43)cc2)c1,inactive: 88%
12,CCC(=O)N1c2ccc(S(=O)(=O)NCc3cccc(OC)c3)cc2CC1C (stereo not drawn),inactive: 66%
13,Cc1ccc(S(=O)(=O)c2nc(-c3ccco3)oc2SC(C)c2ccccc2)cc1 (stereo not drawn),inactive: 34%
14,O=C(CSc1nc(-c2ccccc2)nc2c1CCCC2)c1ccc(F)cc1,inactive: 69%
15,Cc1nc2ccccc2n1CC(O)COc1ccc(C(=O)O)cc1 (stereo not drawn),inactive: 68%
16,Cc1ccc(NC(=O)Cn2cc(C#N)c3ccccc32)cc1,inactive: 113%
17,O=C(CN1CCC(NC(=O)c2ccccc2)CC1)NCc1ccccc1F,inactive: 91%
18,COc1cc(NC(=O)CCc2c(C)nc3nc(-c4cc(OC)cc(OC)c4)nn3c2C)cc(OC)c1,inactive: 93%
19,CCCCN(CC)CCNC(=O)c1cc2c(-c3ccc(Cl)cc3)nn(C)c2s1,active: 5%
20,CC1CCCN(S(=O)(=O)c2ccc(NC(=O)c3nc(SC(C)C)ncc3Cl)cc2)C1 (stereo not drawn),inactive: 90%

row,Compound,survival
1,CCn1c(C(=O)N2CCC(C(=O)NCCc3ccccc3)CC2)cc2sccc21,inactive: 85%
2,CCC(Sc1nnc(-c2ccc(OC)cc2)c(-c2ccc(OC)cc2)n1)C(=O)NC1CCCCC1 (stereo not drawn),inactive: 83%
3,OC(COc1cccc2ccccc12)CN1CCOCC1 (stereo not drawn),inactive: 110%
4,Cc1ccc(-n2c3nc(=O)n(C)c(=O)c-3cc3c(Cl)cccc32)c(C)c1,inactive: 83%
5,Cc1ccc(NS(=O)(=O)c2ccc(NC(=O)N3CCCC3)cc2)cc1C,inactive: 83%
6,O=C1c2ccccc2C(=O)N1c1ccc(S(=O)(=O)N2CCOCC2)cc1,inactive: 108%
7,COc1ccccc1/C=C/c1nc(C#N)c(N2CCCCCC2)o1,inactive: 86%
8,O=C(C1CCCO1)N1CCc2ccccc21 (stereo not drawn),inactive: 125%
9,CCCCN(Cc1ccccc1)C(=O)c1oc(=O)c2ccccc2c1-c1ccc(C)cc1,active: 0%
10,COc1ccc(N2CC(NC(=O)c3ccc(S(=O)(=O)N4CCCC4)cc3)CC2=O)cc1 (stereo not drawn),inactive: 118%
11,COc1ccc(-n2nc(C(=O)N3CCN(c4ccccc4OC)CC3)c3c4ccccc4n(C)c3c2=O)cc1,inactive: 80%
12,CCOC(=O)c1ccc(NC(=O)C(CC)Sc2nc3ncccc3[nH]2)cc1 (stereo not drawn),inactive: 71%
13,COc1cccc(N2CC(NC(=O)/C=C\c3ccc4c(c3)OCO4)CC2=O)c1 (stereo not drawn),inactive: 73%
14,Cc1cc(C)nc(SCC(=O)C(C)(C)C)n1,inactive: 94%
15,Cc1ccc(CNC(=O)c2ccc(CSCc3ccc(Cl)cc3)o2)cc1,inactive: 85%
16,CCc1ccccc1NC(=O)CN1C(=O)CCc2cc(S(=O)(=O)N3CCCCC3)ccc21,inactive: 87%
17,CCCCNS(=O)(=O)c1ccc2nc(NC(=O)c3cccnc3)sc2c1,inactive: 71%
18,O=C(NCc1cccc(F)c1)C1=Cc2cc(Br)ccc2OC1,inactive: 77%
